PubChem BioAssay AID1159614 (National Center for Advancing Translational Sciences (NCATS), 2016)
The whole screen tested about 45,000 compounds, of which about 65 (0.1%) were called active. The call rests on the fitted dose curve; in most records, active means well fitted activation curve with a large enough effect; inconclusive means small, poorly fitted or top-dose-only effect; inactive means no such curve, though single readings can be large or run the other way. Some of the results follow.

Target: Galactocerebrosidase (Homo sapiens) (UniProt P54803)
Experiment: A Novel Cell-Based Assay to Identify Small Molecules for B -Galactocerebrosidase; further: 0% is about no effect; nearly all actives have a fitted effect of over 65% in size
Details: 145M-Twi-hGALC-G270D cells (Twitcher mouse brain line with human GALC G270D), HMU-beta-Gal fluorescence, 48 h; series mostly up to 57.5 µM; activation: at the top concentration
Summary of the method: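 Mutant human GALC (G270D), stably expressed in a Twitcher mouse brain cell line lacking endogenous GALC, is measured in live-treated cells via 6-hexadecanoylamino-4-methylumbelliferyl-β-galactoside hydrolysis (0.1 mM final, pH 5.2) with fluorescent detection.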

Chain of UniProt P54803 (P54803 whole entry, looked up): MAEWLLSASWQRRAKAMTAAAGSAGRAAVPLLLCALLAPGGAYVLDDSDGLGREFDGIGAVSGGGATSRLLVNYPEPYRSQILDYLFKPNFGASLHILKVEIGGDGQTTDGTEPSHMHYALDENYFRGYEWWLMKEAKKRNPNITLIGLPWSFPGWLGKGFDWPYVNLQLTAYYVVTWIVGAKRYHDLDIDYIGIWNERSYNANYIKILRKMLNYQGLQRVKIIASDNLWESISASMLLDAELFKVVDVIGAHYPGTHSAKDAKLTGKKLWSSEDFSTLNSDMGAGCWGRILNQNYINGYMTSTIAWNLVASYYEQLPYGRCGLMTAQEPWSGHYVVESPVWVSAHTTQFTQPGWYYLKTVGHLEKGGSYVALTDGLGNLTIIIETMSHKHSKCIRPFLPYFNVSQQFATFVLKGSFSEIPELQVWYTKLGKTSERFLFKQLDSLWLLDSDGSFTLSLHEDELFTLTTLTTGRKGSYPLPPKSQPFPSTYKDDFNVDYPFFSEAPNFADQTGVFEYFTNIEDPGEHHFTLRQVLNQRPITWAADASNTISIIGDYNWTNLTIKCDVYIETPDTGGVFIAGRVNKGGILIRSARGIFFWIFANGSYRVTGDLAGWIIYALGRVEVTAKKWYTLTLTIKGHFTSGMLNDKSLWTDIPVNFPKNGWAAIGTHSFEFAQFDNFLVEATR

activation, inactive:
CCN(CC)CCCNC(=O)C1CCN(S(=O)(=O)CC)CC1 -20.5%, CC(=O)c1ccc(NC(=O)c2c3c(nc4ccccc24)C(=O)N(C2CCCCC2)C3)cc1 -12.3%, O=S1(=O)c2ccccc2N(Cc2ccccc2)c2ccccc21 -23.1%, COC(=O)c1cc(C)nc2c1c(=O)nc(SCc1ccccc1F)n2C1CC1 -11%, CCOc1ccc(C(=O)Nc2c(C(=O)Nc3ccccc3F)oc3ccccc23)cc1OCC -0.919%, O=C(Cn1c(=O)n(-c2cccc(Cl)c2)c(=O)c2sc3ccccc3c21)N1CCCC1 -1.6%, COc1ccc(OCCn2cc(C(=O)C3CCCCC3)c3ccccc32)cc1 -11.5%, O=C(Nc1cccc(Br)c1)N1CCC(CN2CCCCC2)CC1 -14.9%, Cc1ccc(NC(=O)CSc2nc3ncccc3[nH]2)cc1F -24%, COc1cccc(N2CCN(C(=O)c3cnn(C(C)(C)C)c3C3CCN(C(=O)OC(C)(C)C)CC3)CC2)c1 -16.5%, O=C(c1ccc2c(c1)CCN2S(=O)(=O)c1ccccc1)N1CCN(c2ccc(F)cc2)CC1 -4.81%, Cc1ccc(S(=O)(=O)Cc2nc(-c3ccc(C(=O)NCc4ccccc4)cc3)oc2C)cc1 -14.8%, CCc1cccc(NC(=O)Cn2c(=O)n(Cc3ccccc3)c(=O)c3c2c2cc(OC)ccc2n3C)c1 -8.47%, O=C(NCc1ccc(Cl)cc1)C(=O)Nc1ccc(Br)cc1 -10.4%, COc1ccc(NC(=O)/C(C#N)=C/c2ccc(OCc3cc(=O)n4nc(C)sc4n3)cc2)cc1 4.2%, CC1CCN(C(=O)CSc2nnc(-c3ccccc3Cl)o2)CC1 -15.7%, O=S(=O)(Nc1ccc2oc3c(c2c1)CCCC3)c1cc(Cl)ccc1Cl -6.02%, CCN(C(=O)Cn1nc(Cc2cccnc2)c2ccccc2c1=O)c1ccccc1F -5.33%, CCc1ccccc1NC(=O)Cn1c(-c2nonc2N)nc2ccccc21 -7.64%, O=C(NCCc1csc(-c2ccc(Cl)cc2)n1)c1cccs1 -12.2%, COC(=O)c1c(NC(=O)CCCOc2ccc(C(C)(C)C)cc2)sc2c1CCC(C)C2 (stereo unspecified) -12.5%, Cc1ccc2nc(-c3cc(NC(=O)c4ccc5c(c4)OCCO5)ccc3Cl)oc2c1 -11%, COc1ccc(C2Sc3ccccc3NC3=C2C(=O)c2ccccc23)c(OC)c1OC (stereo unspecified) -16.7%, COc1ccc(NC(=O)CCNS(=O)(=O)c2cccc3nsnc23)cc1 -12.6%, COc1ccc(-c2onc(C)c2C)cc1S(=O)(=O)N1c2ccccc2CC1C (stereo unspecified) -8.21%, Cc1ccc(S(=O)(=O)NCCc2cn3c(C)csc3n2)cc1 -12.5%, Cc1cccc(NC(=O)C2CCN(c3nnc(-n4c(C)ccc4C)s3)CC2)c1C 0.61%, COc1ccc(Cl)cc1NC(=O)CCS(=O)(=O)c1nc(-c2cccs2)cc(C(F)(F)F)n1 -21.6%, CCOC(=O)c1ccc(NC(=O)Nc2c[nH]c(=O)[nH]c2=O)cc1 0.864%, CCOC(=O)c1cc(-c2ccccc2)n(CC(=O)NC(C)c2ccccc2)c1C (stereo unspecified) -4.43%, Cc1ccc(CNC(=O)c2cc3c(s2)-c2ccccc2SC3)cc1 -29.3%, CC(C)CN(CCCNC(=O)Cn1ncc2c3ccccc3n(C)c2c1=O)CC(C)C -1.44%, O=C(NC1(C(F)(F)F)C(=O)Nc2c1c(=O)[nH]c(=O)n2CCc1ccccc1)c1ccc(Cl)cc1Cl (stereo unspecified) -8.15%, COc1ccccc1-c1cc2nc(C)c(CCC(=O)Nc3ccc(Br)c(C)c3)c(C)n2n1 -39.6%, CCn1cc(C(=O)N2CCN(c3cccc(C(F)(F)F)c3)CC2)c2cc(OC)c(OC)cc2c1=O -7.36%, Cc1cc(C)cc(NC(=O)CCS(=O)(=O)c2cc3c4c(c2)CCN4C(=O)CC3)c1 -19.8%, CC(C)COc1ccc(C(=O)Nc2cccc(-c3nc4ccccc4[nH]3)c2)cc1 -36.9%, CCc1ccc(OC(C)C(=O)N2CCC(c3nc4ccccc4s3)CC2)cc1 (stereo unspecified) -12%, O=C(CSc1nnc(-c2ccccc2)c(-c2ccccc2)n1)NC1CCCCC1 -1.14%, CCOc1ccc(-c2nonc2NC(=O)c2oc3ccc(Br)cc3c2C)cc1 -16%, Cc1nc(N2C(=O)c3oc4ccccc4c(=O)c3C2c2cccc(OCCC(C)C)c2)sc1C (stereo unspecified) -4.33%, CCOC(=O)N1CCc2c(sc(NCc3cccc(F)c3)c2C(=O)Nc2ccccc2OCC)C1 -5.21%, Cc1ccc(N2CC(NC(=O)Cc3cccs3)CC2=O)cc1C (stereo unspecified) 0.199%, CCOc1ccccc1NC(=O)C1CCCN(S(=O)(=O)c2c(C)[nH]c(=O)[nH]c2=O)C1 (stereo unspecified) -3.24%, CCOc1ccc(/C=C(\C#N)c2nc3ccccc3c(=O)[nH]2)cc1OC 0.919%, COC(=O)c1nnn(CC(=O)NC(=O)Nc2cccc(C)c2C)c1C(=O)OC -13.9%, CCc1nc2ccc(C(=O)N3CCN(c4ccccc4)CC3)cc2nc1CC -17.1%, O=C(O)c1cn(-c2ccc(F)cc2)c2cc(N3CCNCC3)c(F)cc2c1=O -8.04% [at 23.8 µM], CCOc1cc(-c2nnc(SCC(=O)Nc3ccc(F)c(F)c3)nc2-c2ccc(OC)c(OCC)c2)ccc1OC -8.13%, CCC(=O)Nc1nnc(SCc2cc(=O)c3cc(C)ccc3[nH]2)s1 0.483%, CC(=O)N1CCc2c(sc3c2c(=O)n(-c2ccccc2)c(=O)n3CC(=O)Nc2cccc(C)c2)C1 -13.2%, CCOc1ccc(CNS(=O)(=O)c2c(C(=O)N3CCC(C)CC3)c(C)n(C)c2C)cc1OC 3.55%, Cc1c(C(=O)OC2CCCC2)[nH]c2c1C(=O)CC(c1ccc(Cl)cc1)C2 (stereo unspecified) -22.2%, COc1ccccc1CNC(=O)CCC1N=C2c3ccccc3N=C(SCc3cccc(Cl)c3)N2C1=O (stereo unspecified) -14.3%, CC(C)N(C(=O)CSc1nc2ccc(Cl)cc2[nH]1)c1ccccc1 -14.4%, COc1ccccc1CNC(=O)CCCc1nnc2n(CC(C)C)c(=O)c3sccc3n12 -3%, COc1ccc(-c2cc3nc(-c4ccc(C)cc4)cc(C(F)(F)F)n3n2)cc1 -6.87%, CCOc1ccc(OCC)c(NS(=O)(=O)c2cc(Br)cc3c2N(C(C)=O)C(C)C3)c1 (stereo unspecified) -38.4%, O=C(c1ccc(F)cc1)N1c2nc(-c3ccco3)nn2C2(CCCCC2)[C@@H]2CCCC[C@@H]21 -9.25%, Cc1c(Cl)cccc1NC(=O)Cn1c(CCC(=O)O)ccc1-c1cccs1 -7.36%, CCOC(=O)c1c(NC(C)=O)c2c3c(sc2n1Cc1nc(-c2cccc(Cl)c2)oc1C)CCCC3 -8.3%
